“And” between values parts separate entries of the source, which are not always exact repeats. Equal entries are not always repeated. The campaign covered roughly 340,000 compounds. About 530 (0.16%) were called active. The shares of active, inactive and inconclusive entries below differ from those in the screen. No stated cut-off is given here; in the data, active means activity change below about -80%; inconclusive means between about -30% and that limit; inactive means weaker than that.
Experiment: Small Molecules that selectively kill Giardia lamblia: qHTS;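 further: parasites exposed to compound for two days anaerobically before the ATP read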
Conditions: Giardia lamblia trophozoite viability; at 7.66 µM; active compounds read low
Procedure, shortened: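 Media and compound were dispensed first, then trophozoites at 100 cells/well; plates sat 48 hrs at 37 deg C without oxygen before ATP luminescence reagent was added and read after 15-30 min at room temperature.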
On the % scale 0 is the no-effect control and ±100 the full control effect.

SMILES	activity change
c1ccc(-c2nc(-c3ccccn3)no2)cc1	inconclusive: -59.9% [inhibitor]
COc1ccc(Nc2nc(-c3ccccc3F)nc3ccccc23)cc1OC	inconclusive: -32.9% [inhibitor]
CCCCOc1ccc(CSC2=NCCN2)cc1[N+](=O)[O-]	inconclusive: -40.5% [inhibitor]
CCOc1cc(N2CCOCC2)c(OCC)cc1NC(=O)CN1CCCC(C)C1 (stereo unspecified)	inconclusive: -30.5% [inhibitor]
CSc1ccc(/C=C/C(=O)Nc2ccccc2)cc1	inconclusive: -38.7% [inhibitor]
CC(=O)Nc1sc2c(c1C(N)=O)CCN(Cc1ccccc1)C2	inactive: 5.94%
O=C(COc1cc(F)ccc1[N+](=O)[O-])NCCCc1ccccc1	inconclusive: -39.1% [inhibitor]
O=C(O)CCCNS(=O)(=O)c1ccc2c(c1)OCCCO2	inconclusive: -30.2% [inhibitor]
CCc1ccc(NC(=O)CC2C(=O)N(c3ccc(Cl)cc3)C(=O)N2C2CCCC2)cc1 (stereo unspecified)	inactive: -0.306%
Cc1cccc(/C=C/C(=O)c2ccc([N+](=O)[O-])o2)c1	inconclusive: -31.9% [inhibitor]
O=C(/C=C/c1ccnc2ccccc12)c1cccs1	inactive: -17.5%
O=C(N[C@@H](Cc1ccccc1)C(=O)O)c1cccnc1	inconclusive: -30.6% [inhibitor]
N#Cc1ccc(C(=O)N(Cc2ccccc2)c2ccccc2)cc1	inactive: 3.84%
O=c1cc[nH]c2ccc([N+](=O)[O-])cc12	inconclusive: -46.1% [inhibitor]
COc1ccc(S(=O)(=O)Cc2ccc(C(=O)NCc3cccs3)o2)cc1	inconclusive: -32.5% [inhibitor]
COc1cccc(OC)c1OCC(=O)Nc1ccc(S(=O)(=O)N2CCCC2)cc1	inactive: -2.06%
O=C(N/N=C\c1cc(Br)cs1)c1ccncc1	inconclusive: -31.5% [inhibitor]
COc1ccc(-c2cc(=O)c3cc(OC)ccc3[nH]2)cc1	inconclusive: -41.7% [inhibitor]
Cc1cc(C(C)(C)C)cc(C)c1C(=O)O	inconclusive: -40.7% [inhibitor]
O=C(O)CCC(=O)c1ccc(-c2ccccc2)cc1	inconclusive: -31% [inhibitor]
Oc1cccc(Nc2ncnc3c2oc2ccccc23)c1	inconclusive: -32.6% [inhibitor]
O=C(N/N=C/c1ccc([N+](=O)[O-])s1)c1ccncc1	inconclusive: -65.5% [inhibitor]
COc1ccc(NC(=O)CN2CCN(CC(=O)Nc3ccccc3Cl)CC2)cc1Cl	inactive: 14.1%
CC(=O)Nc1cccc(Nc2nc(-c3cccs3)nc3ccccc23)c1	inconclusive: -35.8% [inhibitor]
CCOc1ccc(/C(C)=N\NC(=O)Cc2ccccc2)cc1	inconclusive: -39.2% [inhibitor]
CCOC(=O)N1CCN(C(=O)CSCC(=O)Nc2nc(-c3ccc(Cl)s3)cs2)CC1	inactive: -14.4%

SMILES	activity change
CCN(C(=O)c1ccco1)c1nnc(-c2ccc(OC)cc2)s1	inconclusive: -47.9% [inhibitor]
O=C(Cn1cnc2c(nnn2-c2cccc(Cl)c2)c1=O)NCc1ccccc1	inactive: -21.9%
Cc1ccsc1CNCC(O)c1ccccc1 (stereo unspecified)	inactive: -3.94%
Cc1ccc(NC(=O)C2CC(=O)N(CCc3ccccc3)C2)c(C)c1 (stereo unspecified)	inactive: -16.4%
CC(NC(=O)c1cccc(S(=O)(=O)N2CCCCCC2)c1)c1ccccc1 (stereo unspecified)	inconclusive: -35.6% [inhibitor]
O=C(Cc1ccc(Cl)c(Cl)c1)Nc1cccnc1	inactive: -19.2%
COc1ccc2nc(SCCOC(=O)Nc3ccc(Cl)cc3)nc(C)c2c1	inactive: 0.0449%
O=C(c1cc2sccc2n1Cc1ccc(F)cc1)N1CCc2ccccc21	inconclusive: -34.8% [inhibitor]
COc1ccc(CN2C(=O)c3cccnc3C2=O)cc1S(=O)(=O)N1CC(C)Oc2ccccc21 (stereo unspecified)	inactive: 7.7%
COc1ccccc1NS(=O)(=O)c1cc(NC(=O)c2ccco2)ccc1N1CCOCC1	inconclusive: -31.5% [inhibitor]
O=S(=O)(NCc1ccccc1)c1ccccc1Br	inconclusive: -35.8% [inhibitor] and inconclusive: -46.8% [inhibitor]
COc1cc(/C=N/Nc2nncn2N)ccc1OCc1c(C)no[n+]1[O-]	inactive: -10.2%
CN1CCN(C(=O)/C(=C\c2cccnc2)NC(=O)c2cccc(Br)c2)CC1	inconclusive: -33.5% [inhibitor]
CCOC(=O)c1c(C)nc2sc(C(N)=O)c(N)c2c1-c1ccc(OC)cc1	inactive: 4.17%
COc1ccc2oc(C(=O)Nc3nnc(C)s3)c(C)c2c1	inconclusive: -50.8% [inhibitor]
COc1ccc(N2CCN(C(=O)CN3C(=O)NC4(CCCc5ccccc54)C3=O)CC2)cc1 (stereo unspecified)	inconclusive: -35.2% [inhibitor]
Cc1ccc(-c2cc(C(=O)n3cnc4ccccc43)c3ccccc3n2)cc1C	inconclusive: -32.3% [inhibitor]
Cc1cccc(N2CCN(C(=S)Nc3ccc4nc(N5CCN(C)CC5)cc(C)c4c3)CC2)c1C	active: -81.9%
Cc1cccn2cc(-c3cccc(S(=O)(=O)N4CC(C)OC(C)C4)c3)nc12 (stereo unspecified)	inactive: 1.43%
Cc1ccccc1C(=O)Nc1ccnn1C1CCN(CCCc2ccccc2)CC1	inconclusive: -36.5% [inhibitor]
Clc1ccc(/C=C/c2nc3ccccc3[nH]2)c(Cl)c1	inconclusive: -70.4% [inhibitor]
CC(=O)Nc1nc(-c2ccc3c(c2)CCN3S(C)(=O)=O)cs1	inactive: 15.9%
O=c1c2c([N+](=O)[O-])cc([N+](=O)[O-])cc2nc2ccccn12	inconclusive: -56.8% [inhibitor]
CC(C)(C)NC(=O)CN(CCN1CCOCC1)C(=O)CNS(=O)(=O)c1ccc(Cl)cc1	inconclusive: -33.5% [inhibitor]
Cc1ccc(NC(=O)c2sc3ccccc3c2Cl)nc1	inconclusive: -33.6% [inhibitor]

— PubChem BioAssay AID540267 (National Center for Advancing Translational Sciences (NCATS), 2011)
